Measurements reported in publication PMC4336329 (PLoS ONE, 2015).
Out of some 310,000 compounds screened, about 14,000 (4.5%) showed an effect of 50% or more. The effect is printed as a negative number. The list shows a part of the results.

biological target: human ether-à-go-go-related gene (hERG) potassium channel (human, UniProt Q12809); assay: primary screen, population patch clamp on CHO cells stably expressing hERG
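Note: peak tail current of the secondary pulse compared with the same well before compound.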

Sequence of human ether-à-go-go-related gene (hERG) potassium channel (Q12809 whole entry, looked up): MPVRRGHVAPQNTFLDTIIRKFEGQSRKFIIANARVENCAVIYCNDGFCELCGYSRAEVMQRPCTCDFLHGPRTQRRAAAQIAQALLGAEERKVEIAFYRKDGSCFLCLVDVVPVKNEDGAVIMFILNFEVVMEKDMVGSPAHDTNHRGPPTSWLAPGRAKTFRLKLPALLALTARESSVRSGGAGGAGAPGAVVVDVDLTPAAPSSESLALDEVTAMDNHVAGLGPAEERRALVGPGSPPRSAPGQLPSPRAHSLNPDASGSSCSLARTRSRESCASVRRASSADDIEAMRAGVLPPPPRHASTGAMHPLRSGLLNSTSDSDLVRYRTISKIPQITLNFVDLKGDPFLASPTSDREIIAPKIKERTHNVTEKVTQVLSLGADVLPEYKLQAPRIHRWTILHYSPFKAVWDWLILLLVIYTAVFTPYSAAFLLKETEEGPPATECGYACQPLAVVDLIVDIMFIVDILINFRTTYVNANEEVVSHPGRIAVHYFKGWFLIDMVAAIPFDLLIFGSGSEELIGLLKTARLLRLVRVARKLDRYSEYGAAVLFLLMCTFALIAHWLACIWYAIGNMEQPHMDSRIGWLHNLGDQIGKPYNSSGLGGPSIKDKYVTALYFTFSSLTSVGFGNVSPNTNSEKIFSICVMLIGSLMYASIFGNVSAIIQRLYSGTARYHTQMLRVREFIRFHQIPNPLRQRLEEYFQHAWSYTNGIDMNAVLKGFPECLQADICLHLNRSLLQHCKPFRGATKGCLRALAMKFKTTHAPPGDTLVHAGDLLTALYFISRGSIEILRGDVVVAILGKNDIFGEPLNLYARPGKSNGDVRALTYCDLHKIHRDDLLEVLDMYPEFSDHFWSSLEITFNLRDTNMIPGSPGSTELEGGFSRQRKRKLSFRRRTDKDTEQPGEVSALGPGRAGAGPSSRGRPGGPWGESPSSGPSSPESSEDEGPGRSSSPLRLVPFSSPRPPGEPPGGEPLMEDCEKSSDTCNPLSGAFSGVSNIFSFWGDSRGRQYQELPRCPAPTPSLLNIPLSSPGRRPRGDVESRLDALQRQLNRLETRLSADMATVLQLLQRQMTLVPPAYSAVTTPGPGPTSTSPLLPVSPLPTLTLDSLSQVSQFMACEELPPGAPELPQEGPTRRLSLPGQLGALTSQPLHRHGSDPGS

SMILES	hERG current change (%, negative = inhibition) at 10uM
COC(=O)c1ccc(-c2csc(NC(=O)C3=COCCO3)n2)cc1	10.6%
O=C(NC(Cc1ccccc1)C(=O)O)/C(=C/c1ccc([N+](=O)[O-])cc1)NC(=O)c1ccccc1 (centres unmarked)	11.1%
COc1ccc(C2C3=C(CC(C)(C)CC3=O)N(CC(=O)O)C3=C2C(=O)CC(C)(C)C3)cc1OC	2.83%
Cc1cccc(N=C2NC(=O)/C(=C/c3cn(C)c4ccccc34)S2)c1	22.5%
[N-]=[N+]=NC[C@H](Cc1ccccc1)N1CC[C@@H](OCc2ccccc2)CCC1=O	-13.3%
O=C(NCCc1c[nH]c2ccccc12)C(=O)NCC(c1ccco1)N1CCN(c2ccccc2F)CC1 (centres unmarked)	-0.657%
CCc1nn(CC(=O)N2CCN(C)CC2)c(=O)c2cccn12	-10.5%
COC(=O)c1ccc(CN2CCC(CO)(CCOc3ccccc3)CC2)cc1	-80.1%
CCNc1nc(C)cc(COC)c1C#N	-0.846%
CCCn1c(SCCC(=O)O)nc2ccccc21	8.62%
CCOc1ccc2oc(C(=O)OCC(=O)NC(=O)NC3CCCC3)c(C)c2c1	-4.99%
COc1cc(/C=N/n2nnnc2Nc2ccccc2)cc(OC)c1OC	-19.9%
CCc1cccc(C)c1NS(=O)(=O)c1cc(Br)cnc1N	8.34%
CC(=O)NC1=NN(C(C)=O)C2(CCCC2)S1	13.4%
Cc1ccc(S(=O)(=O)N2CCCCC2C(=O)N2CCN(Cc3ccccc3)CC2)cc1.Cl (centres unmarked)	-42.5%
COc1ccc(NC(=O)CN2CCN(S(=O)(=O)c3ccc(Cl)cc3)CC2)cc1	-79.7%
COc1ccc(CNC(=O)CCCn2nc([N+](=O)[O-])cc2C)cc1	-12.9%
COc1cc(CN(C)Cc2nc3cc(C(F)(F)F)ccc3c(=O)[nH]2)ccc1OC(F)F	-66.5%
CN1CCN(C(=O)CN(C)S(=O)(=O)c2ccc3ccccc3c2)CC1	3.1%
COc1ccccc1CN(C)C(=O)c1ccc(S(=O)(=O)NCc2ccco2)cc1	-14.9%
CSc1ccccc1OCc1cc(C(=O)NCCC2=CCCCC2)no1	-0.22%
COc1ccc(-n2c(N)cc(=O)[nH]c2=O)cc1	8.55%
Cc1cccc(N(C(=O)Cc2cccs2)C(C(=O)NCc2ccco2)c2ccncc2)c1 (centres unmarked)	-8.62%

SMILES	hERG current change (%, negative = inhibition) at 10uM
CC(C)Oc1cccc(C(=O)C2CCCN(Cc3cccn3-c3cccnc3)C2)c1 (centres unmarked)	-27.7%
Cn1c(C(=O)OCC(=O)NCc2ccc(F)cc2)cc2occc21	-11.1%
CCn1cc(C(=O)NCCc2ccc(OC)c(OC)c2)c(=O)c2cc(S(=O)(=O)N3CCOCC3)ccc21	-5.39%
CC(C)(C)c1ccc2c(c1)OC(C(=O)N/N=C\c1ccncc1)CO2 (centres unmarked)	11.2%
Cc1nn(Cc2ccccc2)c(C)c1/C=N/NC(=O)c1ccccc1O	-13.2%
CC(C)CCCN1CCN=C1N(C)C	8.91%
CCCOc1ccc(S(=O)(=O)NCc2ccc(OC)cc2)cc1	-23.5%
COc1cc(SC)ccc1C(=O)NCCCn1ccnc1	-18.4%
COc1ccc(C(=O)NCC2CCCCC2)cc1S(=O)(=O)N1CCCC1	-9.01%
Cc1ccccc1NC(=O)c1c2c(nc3ccccc13)CCC2	-27.2%
Cn1cnc2c1c(=O)n(Cc1ccc(Cl)cc1Cl)c(=O)n2C	-5.11%
CC(C)NC(=S)N(CCc1ccncc1)C(C)C	17.3%
O=S(=O)(c1ccccc1)N(Cc1ccccc1)c1ccccn1	10.8%
CN(C)N1C(N)=C(C#N)C(c2cccs2)C2=C1CCCC2=O (centres unmarked)	6.91%
CCN1CCN(c2ccc([N+](=O)[O-])c(Sc3nc4ccccc4[nH]3)c2)CC1	-60.4%
O=C1CC(c2ccc(F)c(Br)c2)C2=C(CCCC2=O)N1 (centres unmarked)	-4.62%
CCc1ccccc1NC(=S)N1CCC(NC(=O)c2ccc(OC)cc2)CC1	-13.9%
Cc1ccc(CN2CCN(C(=O)CC(C)C)CC2)cc1	6.46%
COc1cccc(-c2nnc(-c3ccccc3[N+](=O)[O-])o2)c1	7.36%
Cc1ccc(C2C(C(=O)c3cc4ccccc4o3)=C(O)C(=O)N2c2cc(C)on2)cc1 (centres unmarked)	19.3%
CCOCCOC(=O)c1[nH]c2c(c1C)C(=O)CC(c1ccc(OC)c(OC)c1)C2 (centres unmarked)	3.38%
CC(C)CNC(=O)C(=O)NNC(=O)c1ccco1	13.2%
COc1cc2c(cc1OC)C(C)N(C(=S)Nc1ccccc1)CC2 (centres unmarked)	-7.48%

SMILES	hERG current change (%, negative = inhibition) at 10uM
O=C(O)CC(NC(=O)c1ccncc1)c1ccccc1 (centres unmarked)	21.5%
CCn1c(C)c(C)c2cc(C(=O)NCCCN3CCCCCC3)ccc21	-35.5%
COc1ccc(-c2cn(-c3cccc(C)c3)c(=O)[nH]2)cc1OC	-29.8%
CC(=O)C(c1ccccc1)C(c1ccccc1)C(C)[N+](=O)[O-] (centres unmarked)	14.3%
Cc1nc(SC(C)C(=O)NCC2CCCO2)c2cc(-c3ccccc3)sc2n1 (centres unmarked)	-27%
O=C(c1ccccc1Sc1cccc2ccccc12)N1CCOCC1	-22%
Cc1ccc(C(=O)Nc2c(C)cc(C)c3cccnc23)cc1	24%
O=C(NC1CCCC1)C(c1ccc(O)cc1)N(CC1CCCO1)C(=O)C1COc2ccccc2O1 (centres unmarked)	-14.5%
COCCCN(Cc1ccco1)C(=O)CSc1nc2ncccc2[nH]1	7.62%
Cc1ccc(Nc2nc(N)nc(CN3CCC(C)CC3)n2)c(C)c1	-57.8%
CCC(=O)Nc1nc(C)c(-c2csc(Nc3ccccn3)n2)s1	9.84%
O=C(COc1cccc(C(F)(F)F)c1)NNC(=O)Cn1c(=O)cnc2ccccc21	-5.83%
O=Cc1c(-[n+]2ccccc2)nc([O-])n1-c1ccccc1	2.93%
CCC(=O)NC(c1cc(Cl)c2ccccc2c1O)C1CC1 (centres unmarked)	14.5%
CCOC(=O)C1CCN(C(=O)c2ccc3c(c2)OCO3)CC1	-5.29%
COc1cccc(NC(=O)c2ccc3c(SCC(=O)O)c4c(nc3c2)CCCC4)c1	7.68%
CC1CCCN(CCC(=O)Nc2ccccc2)C1.Cl (centres unmarked)	12.2%
COc1ccc(-c2csc(-n3ncc(-c4ccccn4)c3N)n2)cc1	20.2%
CCCCC(CC)C(=O)Nc1ccc(S(=O)(=O)N2CCCC2)cc1 (centres unmarked)	-6.33%
O=C(CC(c1ccccc1)(c1ccccc1)c1ccccc1)N[C@@H](Cc1ccc(O)cc1)C(=O)O	-12.5%
Cc1nnc(N/N=C/c2ccccc2C(F)(F)F)n1N.Cl	11.2%
FC(F)(F)c1cccc(NC(=S)N2CCN(c3cccc(C(F)(F)F)c3)CC2)c1	16.6%
COc1ccc(C2/C(=C(/O)c3ccccc3)C(=O)C(=O)N2CO)cc1 (centres unmarked)	1.55%

SMILES	hERG current change (%, negative = inhibition) at 10uM
O=C(CSC(=S)N1CCOCC1)Nc1nccs1	-1.54%
CCOC(=O)C1CCN(C(=O)c2cccc(NC3=NC4CS(=O)(=O)CC4S3)c2)CC1 (centres unmarked)	7.41%
CN(C)CCCn1c(SCc2ccc(Cl)cc2)nnc1-c1ccncc1.O=C(O)C(=O)O	-15.5%
O=C(CCC1COc2ccccc2O1)NCc1ccco1 (centres unmarked)	0.393%
O=C(CN1C(=O)S/C(=C\c2ccc(C(=O)O)cc2)C1=O)Nc1ccccc1	19%
Cc1cc(=O)[nH]c(SCC(=O)Nc2c(C)n(C)n(-c3ccccc3)c2=O)c1C#N	19.3%
CC1(C)Cc2c(sc(NC(=O)c3ccc4ncsc4c3)c2C(N)=O)C(C)(C)N1	-30.5%
CC(C)n1nnnc1-c1cc(Cl)cc(Cl)c1	-11.1%
CCCCN(C(=O)CNC(=O)c1cccs1)C(C(=O)NC1CCCC1)c1ccncc1 (centres unmarked)	4.35%
Nc1nc(Cl)c(C=O)c(N2CCCCC2)n1	1.3%
N#Cc1cc(C(=O)c2cc(Br)ccc2O)cn(C2CC2)c1=O	-27.5%
COc1cc(NC(=O)c2csc(N)n2)cc(C(=O)Nc2cccc(C(F)(F)F)c2)c1	-4.7%
Cc1ccc(-c2nnc(N3CCC(C)CC3)c3ccccc23)cc1	3.1%
Cl.NC(CCC(=O)O)C12CC3CC(CC(C3)C1)C2 (centres unmarked)	14.2%
Cc1ccc(OCC(O)CN2CCN(c3ccccn3)CC2)c(C)c1.Cl (centres unmarked)	-60.5%
O=C(CC(C(=O)O)c1cccc(Cl)c1)c1ccccc1 (centres unmarked)	14.2%
CO/N=C(\Cn1ncc(N2CCCC2)c(Br)c1=O)c1ccc(Cl)cc1	-57.5%
CCC(C)[C@H](NC(=O)[C@@H]1CSC2c3ccccc3C(=O)N21)C(=O)NCC1CCCO1 (some centres unmarked)	21.5%
CCOC(=O)C1CCCN(C(=S)Nc2ccc(C)cc2C)C1 (centres unmarked)	7.62%
Cc1ccc(NC(=S)N2CCN(S(=O)(=O)c3ccccc3)CC2)cc1	6.89%
